This is one part of the list. These are noisy estimates, calculated here from bound and input reads.
target: T1, Pho4 (S. cerevisiae) (UniProt P07270); assay: relative binding free energy (BET-seq); higher = weaker binding; conditions: reference: library average
T1 sequence: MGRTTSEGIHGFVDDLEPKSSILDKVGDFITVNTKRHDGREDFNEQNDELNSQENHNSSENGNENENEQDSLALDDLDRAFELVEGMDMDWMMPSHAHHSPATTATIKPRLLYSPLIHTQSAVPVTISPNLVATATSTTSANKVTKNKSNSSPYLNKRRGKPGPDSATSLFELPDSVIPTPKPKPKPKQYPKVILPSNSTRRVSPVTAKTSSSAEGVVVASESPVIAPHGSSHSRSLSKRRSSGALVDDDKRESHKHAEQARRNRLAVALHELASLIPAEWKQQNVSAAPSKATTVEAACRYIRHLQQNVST

Sequence | relative binding free energy [kcal/mol]
AAACTCACGTGTTAGG | 0.22
GCGTACACGTGGTGTA | -0.05
ATAGTCACGTGTTTAC | 0.14
TTTACCACGTGCTTGG | 0.07
TGGGGCACGTGTATAT | -0.1
ATGCTCACGTGGGGTT | -0.05
TAAGGCACGTGTTATA | -0.23
TAGTACACGTGTAGGA | 0.24
GTTGACACGTGGGCCG | -0.1
TGTCTCACGTGCGGGA | 0.11
CCATGCACGTGGTTGT | -0.05
AGAGTCACGTGGATTT | 0.06
TCTGGCACGTGAAATG | 0.14
TATCTCACGTGTTGGT | 0.12
GGTATCACGTGATTTG | 0.31
GGGCTCACGTGGGTGG | 0.1
GGCTTCACGTGTGATG | 0.41
TTAATCACGTGGGGTC | 0.01
TTTGTCACGTGGGGGC | 0.09
TGGAGCACGTGCCGGT | -0.3
TAGTTCACGTGTCGGA | 0.3
CGTCGCACGTGATTGG | 0.1
AATCTCACGTGTTTGT | 0.19
GTAGACACGTGAAGGG | 0.18
GGGAGCACGTGGGCTG | -0.2
AGTTTCACGTGAAAGA | 0.42

Sequence | relative binding free energy [kcal/mol]
TCTATCACGTGTTCGG | 0.19
TATTACACGTGGAAAT | 0.23
TTGGCCACGTGGAGGG | -0.09
GTGGGCACGTGTAGAG | -0.01
TGTTGCACGTGAGTTG | 0.26
CGTGGCACGTGTCGGT | -0.1
TTCACCACGTGGTTGT | -0.04
TTTATCACGTGGGCGG | 0
GAGTGCACGTGTTGTT | 0.02
GGTTTCACGTGAGTAC | 0.5
ATAGGCACGTGAGTCG | -0.01
GTACTCACGTGGGGGA | 0.15
TGAGTCACGTGTACTG | 0.14
GTAGACACGTGTGGGC | 0.11
GAGATCACGTGGGCTT | 0.18
GTGGACACGTGAGATA | 0.26
TATAGCACGTGAGTCT | 0.15
TGGAGCACGTGCGTAG | -0.1
ATGTTCACGTGGGCTC | 0.17
CGTGTCACGTGTTTGG | 0.01
GAGGGCACGTGCTGAA | -0.07
CCGTTCACGTGGGTAT | 0.14
TAAGTCACGTGCGTTT | 0.06
TGTATCACGTGGCGAT | 0.12
AGGGGCACGTGGTACT | -0.21
GGTTGCACGTGCTGCT | -0.03

Sequence | relative binding free energy [kcal/mol]
TTGATCACGTGCGAGT | 0.19
ATATACACGTGGTTCT | 0.02
GTATCCACGTGTATGG | 0.04
GTAGGCACGTGCATTG | -0.09
GTGTACACGTGTTCGA | 0.08
CTTTGCACGTGTGATT | 0.02
GTTAGCACGTGTTCGT | -0.15
CCTTGCACGTGGGCGT | -0.09
GGTGACACGTGACTTG | 0.29
GTGTTCACGTGATGAT | 0.36
GGTACCACGTGGTAAG | 0.08
GGGTACACGTGGAGAG | 0.19
TGAGCCACGTGGGTTG | -0.35
GGCGTCACGTGGTAAG | 0.08
GGTTGCACGTGTTCTC | 0.17
TTTGTCACGTGGGTCT | -0.08
TTGTGCACGTGTAATT | 0.16
CGCGGCACGTGGGTCG | -0.26
TGGATCACGTGAGATG | 0.46
GGCGTCACGTGGTTGG | 0.06
AGCATCACGTGCAGGG | 0.35
CTGTGCACGTGATGTA | -0.04
GGGGACACGTGCAAGG | 0.13
TAGATCACGTGGCTTT | 0.03
GGGTACACGTGTATCT | -0.02
GTTGGCACGTGTGAGA | 0.12

Sequence | relative binding free energy [kcal/mol]
ATGGGCACGTGCTAAG | -0.13
CCAAGCACGTGTGGGG | -0.06
GCTTTCACGTGTAGTG | 0.35
GTTATCACGTGCTCGG | 0.11
CTGTTCACGTGAGGCT | 0.34
GTTGGCACGTGTAGAG | -0.06
CGGTCCACGTGTGTAT | 0.12
TGTGACACGTGTTTTC | 0.06
GTGGGCACGTGGGGAA | -0.15
TCGGTCACGTGTGGAG | 0.06
TTTTACACGTGTTGCG | 0.15
ACGGTCACGTGTTAGG | 0.16
TTTCTCACGTGGGCGG | 0.13
CGTAACACGTGTATGT | -0.06
TATCGCACGTGATGGT | 0.04
TGTCTCACGTGTATGT | 0.23
ATTGTCACGTGTTTTA | 0.16
GGTGACACGTGTTGAC | 0.22
CGTTACACGTGAGTTT | 0.42
TGTCGCACGTGTTGAG | -0.02
AAGAGCACGTGGGAAT | -0.2
TTGCTCACGTGGTGTG | 0.09
GTATTCACGTGTTGAA | 0.08
TGACGCACGTGAAGGT | 0.17
TGGGTCACGTGAGGGC | 0.25
GAGGCCACGTGGGTAG | -0.07

Sequence | relative binding free energy [kcal/mol]
CCGGACACGTGGGGTG | -0.23
GATGCCACGTGTAGGG | 0.09
AGCGGCACGTGGTGGC | -0.16
ATGTTCACGTGTGGGA | 0.28
TTGAACACGTGTTAGG | 0.04
TGAACCACGTGGTTGG | -0.2
GGGGTCACGTGCAGGC | 0.16
GGGGCCACGTGGCTTG | -0.18
CATTTCACGTGTGTTT | 0.43
TTGAACACGTGGCTTT | -0.06
CTAGACACGTGTGGTT | 0.07
GGTAGCACGTGGCCGG | -0.03
CGTGTCACGTGGGCTC | -0.06
TTTTTCACGTGGGAAC | 0.16
AGATGCACGTGAGGGC | 0.27
GGTAACACGTGTGATA | 0.16
CTTGTCACGTGTTGCT | -0.1
TGATTCACGTGTAGGT | 0.28
TGGCTCACGTGATTTG | 0.56
TGAGTCACGTGACTTT | 0.23
TAGTACACGTGGATAT | -0.04
GTGGGCACGTGTTCAA | 0.05
GGTGTCACGTGAAAGC | 0.37
AAAGCCACGTGTGGGG | -0.21
GGTGACACGTGAGAGA | 0.15
ACAGGCACGTGCGAGG | -0.07

Sequence | relative binding free energy [kcal/mol]
TGTGTCACGTGTTTTA | 0.08
CTGCGCACGTGGTAAG | 0
AGCGTCACGTGGAATG | 0.19
GGCAGCACGTGCTGGG | -0.21
GTAGTCACGTGTAAGT | 0.19
ATAGCCACGTGTTGGC | 0.09
GTTGCCACGTGTATGA | 0.11
TAGGGCACGTGGTTTC | -0.06
TGTTGCACGTGGAGGA | 0.05
TGGCACACGTGAGGGA | 0.33
TTGTTCACGTGGGCTA | 0.05
ATGGCCACGTGATGTA | 0.04
AGTCTCACGTGTCGGT | 0.14
TTTATCACGTGTAGGA | 0.2
GTGCTCACGTGATGTG | 0.31
TTTATCACGTGTAATA | 0.11
TGTATCACGTGCGCTG | -0.02
GGAGTCACGTGGGCCG | 0.02
AGTGTCACGTGCGGAA | -0.02
TTCTGCACGTGTCGTT | 0.01
TCGGTCACGTGTATAT | 0.2
AGTGGCACGTGGGATG | -0.17
TGAAGCACGTGGTTTT | -0.04
GGATTCACGTGTGGTC | 0.39
TAAGACACGTGAGTTT | 0.31
TAGCTCACGTGAGTAT | 0.4

Sequence | relative binding free energy [kcal/mol]
GTAATCACGTGTAAAT | 0.44
TGGCGCACGTGTCTGT | -0.13
CATGGCACGTGAGAGG | 0.06
GGAGACACGTGATGTA | 0.22
TTGGTCACGTGACAGG | 0.25
CTCGGCACGTGGAGGT | -0.2
TTGAGCACGTGCGGGT | -0.14
GCTTTCACGTGTTTGT | 0.36
GGAGGCACGTGGGAAG | -0.02
ATCGTCACGTGGGTAG | -0.15
GTTGTCACGTGGGGGC | 0.01
GTAGTCACGTGCGTAT | 0.08
GTGGGCACGTGGCCGA | -0.09
CATAGCACGTGGGTTG | -0.41
GGCTACACGTGATGGG | 0.32
TGAGGCACGTGCCGGG | -0.21
CGTTTCACGTGGGTAG | 0.13
TGCTCCACGTGGGGGG | -0.14
CGGGCCACGTGGGAAG | -0.11
TGAACCACGTGGTGTG | -0.09
AGGTGCACGTGGTGTC | -0.15
TACAGCACGTGTGGTT | 0.01
AGTATCACGTGGAGAT | 0.08
TTTTGCACGTGGAGTG | -0.01
TTGTTCACGTGATATG | 0.28
TGCGCCACGTGAGTGT | 0.04

Sequence | relative binding free energy [kcal/mol]
TAGTGCACGTGAAGGA | 0.21
GTAATCACGTGTAGTA | 0.29
CCTGTCACGTGGGGTG | -0.04
TGCGTCACGTGGAGGT | -0.01
GGATTCACGTGGGACG | 0.34
GGTTCCACGTGGGTGA | -0.04
TGCCTCACGTGTTGTG | 0.07
TGTATCACGTGTAAGC | 0.39
TTAGCCACGTGGATGG | -0.11
CGGTGCACGTGTGTTA | 0.02
CTAGTCACGTGGGTAG | 0.03
TCACGCACGTGTGTGG | -0.04
GGTAACACGTGAGCGG | 0.32
CGGTGCACGTGTTGTC | 0.02
ATGTACACGTGAGCGG | 0.33
GTATTCACGTGACGGT | 0.2
TGATGCACGTGATGGC | 0.02
AGTAGCACGTGTGTGC | -0.1
TAAGGCACGTGGGATG | -0.11
TGGCGCACGTGTCGGT | -0.04
ATGTTCACGTGGGGAA | 0.01
AGTGACACGTGTCGGT | -0.05
GAGTACACGTGATGGA | 0.33
CGGGTCACGTGTGTCT | 0.22
AAGGTCACGTGCTTTT | 0.14
TAGTCCACGTGTATGG | -0.08

Sequence | relative binding free energy [kcal/mol]
TCTGACACGTGGGGCG | -0.01
GGGACCACGTGCGGGG | -0.19
ACCGTCACGTGGGTGT | -0.11
GAGGTCACGTGGGACT | 0.04
GGCTGCACGTGCGTGA | -0.02
GTCCTCACGTGTGTGT | 0.28
GGGGCCACGTGTGGGT | 0.15
TTTTCCACGTGTTGGT | 0.16
GTATTCACGTGTTCCG | 0.34
TGTGACACGTGTTCTG | -0.04
GTTCTCACGTGGTGTC | 0.26
GGCATCACGTGATGGG | 0.33
GAGGCCACGTGGGTGA | -0.2
GGGCGCACGTGGGGGT | -0.17
CGGTACACGTGGGGGC | -0.01
TTAATCACGTGGAGTC | 0.2
TTTTACACGTGTGGAG | 0.19
GGTGTCACGTGGTATC | 0.04
TGATTCACGTGGAGTC | 0.25
ACTCTCACGTGGGTGG | 0.11
ATTGTCACGTGGGCAT | 0.02
GTGGTCACGTGGAGCT | 0.21
